No constants are given. Whether binding was seen depends on the method and setting. Binding seen in cells or lysates may run through a third protein. Some results given as binding are weak or reduced against the parent protein; the word gives no strength. For part of these data: Where a sequence is shown, tags or fusion partners need not be part of it.
B1: Transcription factor E2F7 (protein, UniProt Q96AV8 1-911)
chain: MEVNCLTLKDLISPRQPRLDFAVEDGENAQKENIFVDRSRMAPKTPIKNEPIDLSKQKKFTPERNPITPVKFVDRQQAEPWTPTANLKMLISAASPDIRDREKKKGLFRPIENKDDAFTDSLQLDVVGDSAVDEFEKQRPSRKQKSLGLLCQKFLARYPSYPLSTEKTTISLDEVAVSLGVERRRIYDIVNVLESLHLVSRVAKNQYGWHGRHSLPKTLRNLQRLGEEQKYEEQMAYLQQKELDLIDYKFGERKKDGDPDSQEQQLLDFSEPDCPSSSANSRKDKSLRIMSQKFVMLFLVSKTKIVTLDVAAKILIEESQDAPDHSKFKTKVRRLYDIANVLTSLALIKKVHVTEERGRKPAFKWIGPVDFSSSDEELVDVSASVLPELKRETYGQIQVCAKQKLARHGSFNTVQASERIQRKVNSEPSSPYREEQGSGGYSLEIGSLAAVYRQKIEDNSQGKAFASKRVVPPSSSLDPVAPFPVLSVDPEYCVNPLAHPVFSVAQTDLQAFSMQNGLNGQVDVSLASAASAVESLKPALLAGQPLVYVPSASLFMLYGSLQEGPASGSGSERDDRSSEAPATVELSSAPSAQKRLCEERKPQEEDEPATKRQSREYEDGPLSLVMPKKPSDSTDLASPKTMGNRASIPLKDIHVNGQLPAAEEISGKATANSLVSSEWGNPSRNTDVEKPSKENESTKEPSLLQYLCVQSPAGLNGFNVLLSGSQTPPTVGPSSGQLPSFSVPCMVLPSPPLGPFPVLYSPAMPGPVSSTLGALPNTGPVNFSLPGLGSIAQLLVGPTAVVNPKSSTLPSADPQLQSQPSLNLSPVMSRSHSVVQQPESPVYVGHPVSVVKLHQSPVPVTPKSIQRTHRETFFKTPGSLGDPVLKRRERNQSRNTSSAQRRLEIPSGGAD
B2: endogenous E2F7 (A549) (protein, UniProt Q96AV8 1-911)
chain: B1 chain
B3: Myc-tagged E2F7 (mouse E2F7 clone) (protein, UniProt Q6S7F2 1-904)
chain: MEVNCLTLKDLISPRQTRLDFAIEDAENAQKENIFVDRSRMTPKTPMKNEPIDLSKQRIFTPDRNPITPVKPVDRQPQVEPWTPTANLKMLISAASPDIRDREKKKELFRPIENKEDAFVNSLQLDVAGDGAVDEYEKQRPSRKQKSLGLLCQKFLARYPSYPLSTEKTTISLDEVAVSLGVERRRIYDIVNVLESLHLVSRVAKNQYGWHGRHSLPKTLRTLQRLGEEQKYEEQMACLQQKELDLMGYRFGERRKDGSPDPRDPHLLDFSEADYPSSSANSRKDKSLRIMSQKFVMLFLVSKTKIVTLDVAAKILIEESQDTPDHSKFKTKVRRLYDIANVLTSLALIKKVHVTEERGRKPAFKWIGPVDFSSIDEELLDVSASILPELKKEAYGQIRVCAKERLVRYGSFNTVHTSEKIQRKVSSEPSSPQGERQGSAYSLEIGSLAAIYRQKVEDNSQEEAFVSNTAVPPASILDPALSMDSEYCVKPLAQPVFSVAQTDLPAFSAQNGPSGQVGVPVPSAASDTENLKPALLAGQPLVYVPSTQLFMLYGSVQEGLSPESRSEEDGGGSDVPADLSVTPSAQKRLCEERDPQEEEDEPAMKRQSQEFEDSPLSLVMPKKPSSSTDLACPVTMGNGSSPPLEDACVKGQLPAAEEVTGKAAPNCYVASECGNPARNPDTEKPSNENEITKDPSLMQYLYVQSPAGLNGFNMVLPGTQTPHTVAPSPAQLPSFGVPCMFLQSPGLGPFPVLYSPAIPGPISSAPGTHPNPGPMNFGLSTLASASHLLISPAAMVNPKPSTLPCTDPQLRCQPSLNLNPVMPGSHGVIHPESPCYVRHPVSMVKAEQSPAPATPKSIQRRHRETFFKTPGSLGDPVFRRKERNQSRNTSSAQRRLEISSSGPD

Amino acid sequences for entries named in this document (tags omitted). A change or cut given only in a name is not applied to a line headed by its entry.
UniProt Q92769: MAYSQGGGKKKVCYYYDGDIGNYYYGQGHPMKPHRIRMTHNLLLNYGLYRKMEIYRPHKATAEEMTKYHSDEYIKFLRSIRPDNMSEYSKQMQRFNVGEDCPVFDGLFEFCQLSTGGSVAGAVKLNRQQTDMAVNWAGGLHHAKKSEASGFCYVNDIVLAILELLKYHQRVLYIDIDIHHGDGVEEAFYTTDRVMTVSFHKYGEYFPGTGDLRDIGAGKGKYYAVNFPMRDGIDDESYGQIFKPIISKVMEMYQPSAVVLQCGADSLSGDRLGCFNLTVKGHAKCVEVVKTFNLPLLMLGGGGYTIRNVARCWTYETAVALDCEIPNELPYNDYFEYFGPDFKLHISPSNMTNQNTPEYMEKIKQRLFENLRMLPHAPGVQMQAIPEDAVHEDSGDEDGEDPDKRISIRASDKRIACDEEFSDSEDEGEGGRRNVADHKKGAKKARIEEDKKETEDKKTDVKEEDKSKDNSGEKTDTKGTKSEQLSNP
UniProt Q14839: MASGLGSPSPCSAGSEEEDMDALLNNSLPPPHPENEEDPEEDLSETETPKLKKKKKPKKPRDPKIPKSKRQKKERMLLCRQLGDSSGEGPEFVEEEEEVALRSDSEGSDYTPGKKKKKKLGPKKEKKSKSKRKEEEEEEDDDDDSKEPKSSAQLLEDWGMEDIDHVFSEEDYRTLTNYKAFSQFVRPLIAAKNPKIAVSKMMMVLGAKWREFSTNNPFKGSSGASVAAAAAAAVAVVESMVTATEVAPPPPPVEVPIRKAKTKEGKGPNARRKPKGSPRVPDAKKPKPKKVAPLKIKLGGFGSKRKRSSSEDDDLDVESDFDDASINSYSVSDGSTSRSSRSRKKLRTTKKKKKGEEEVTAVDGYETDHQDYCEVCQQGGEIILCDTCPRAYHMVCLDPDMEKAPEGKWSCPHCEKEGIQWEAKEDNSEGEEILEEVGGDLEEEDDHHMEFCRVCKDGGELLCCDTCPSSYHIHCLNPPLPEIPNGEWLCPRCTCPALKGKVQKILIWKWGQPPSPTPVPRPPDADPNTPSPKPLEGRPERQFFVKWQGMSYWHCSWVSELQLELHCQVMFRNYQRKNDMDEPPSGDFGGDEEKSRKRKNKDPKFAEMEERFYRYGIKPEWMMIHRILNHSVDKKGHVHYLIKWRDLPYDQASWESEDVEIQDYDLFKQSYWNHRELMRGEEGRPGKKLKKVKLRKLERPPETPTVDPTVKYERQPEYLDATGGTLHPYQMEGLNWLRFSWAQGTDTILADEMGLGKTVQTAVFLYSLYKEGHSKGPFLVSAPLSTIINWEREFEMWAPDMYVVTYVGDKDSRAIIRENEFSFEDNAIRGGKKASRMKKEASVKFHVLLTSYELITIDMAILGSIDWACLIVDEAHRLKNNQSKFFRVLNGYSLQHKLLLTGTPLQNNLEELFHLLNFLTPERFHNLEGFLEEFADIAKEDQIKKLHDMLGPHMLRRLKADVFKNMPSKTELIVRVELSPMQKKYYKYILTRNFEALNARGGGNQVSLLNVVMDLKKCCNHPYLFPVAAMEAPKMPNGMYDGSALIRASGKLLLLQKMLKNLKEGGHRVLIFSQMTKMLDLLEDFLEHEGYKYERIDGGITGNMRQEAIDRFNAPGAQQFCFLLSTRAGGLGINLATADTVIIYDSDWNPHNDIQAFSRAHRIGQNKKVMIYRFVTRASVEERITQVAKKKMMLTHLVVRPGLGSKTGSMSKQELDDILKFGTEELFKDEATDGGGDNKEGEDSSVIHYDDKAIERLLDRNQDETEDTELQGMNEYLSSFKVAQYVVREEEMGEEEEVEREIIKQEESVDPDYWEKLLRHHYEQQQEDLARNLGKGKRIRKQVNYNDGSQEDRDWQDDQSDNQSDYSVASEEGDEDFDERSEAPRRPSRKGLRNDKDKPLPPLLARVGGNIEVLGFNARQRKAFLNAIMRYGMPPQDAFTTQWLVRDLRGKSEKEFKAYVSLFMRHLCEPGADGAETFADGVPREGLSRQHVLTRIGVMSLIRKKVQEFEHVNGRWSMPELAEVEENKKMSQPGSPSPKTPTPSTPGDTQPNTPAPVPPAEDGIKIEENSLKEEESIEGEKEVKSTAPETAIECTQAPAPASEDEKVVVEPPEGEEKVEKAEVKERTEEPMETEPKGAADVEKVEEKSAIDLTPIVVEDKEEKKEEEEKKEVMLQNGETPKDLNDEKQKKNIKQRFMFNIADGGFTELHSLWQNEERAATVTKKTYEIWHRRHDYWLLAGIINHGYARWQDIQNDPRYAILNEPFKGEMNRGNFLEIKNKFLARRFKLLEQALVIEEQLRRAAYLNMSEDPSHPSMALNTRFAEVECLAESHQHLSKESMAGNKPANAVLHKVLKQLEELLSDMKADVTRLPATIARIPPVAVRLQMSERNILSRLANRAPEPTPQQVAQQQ
UniProt Q8WXI9: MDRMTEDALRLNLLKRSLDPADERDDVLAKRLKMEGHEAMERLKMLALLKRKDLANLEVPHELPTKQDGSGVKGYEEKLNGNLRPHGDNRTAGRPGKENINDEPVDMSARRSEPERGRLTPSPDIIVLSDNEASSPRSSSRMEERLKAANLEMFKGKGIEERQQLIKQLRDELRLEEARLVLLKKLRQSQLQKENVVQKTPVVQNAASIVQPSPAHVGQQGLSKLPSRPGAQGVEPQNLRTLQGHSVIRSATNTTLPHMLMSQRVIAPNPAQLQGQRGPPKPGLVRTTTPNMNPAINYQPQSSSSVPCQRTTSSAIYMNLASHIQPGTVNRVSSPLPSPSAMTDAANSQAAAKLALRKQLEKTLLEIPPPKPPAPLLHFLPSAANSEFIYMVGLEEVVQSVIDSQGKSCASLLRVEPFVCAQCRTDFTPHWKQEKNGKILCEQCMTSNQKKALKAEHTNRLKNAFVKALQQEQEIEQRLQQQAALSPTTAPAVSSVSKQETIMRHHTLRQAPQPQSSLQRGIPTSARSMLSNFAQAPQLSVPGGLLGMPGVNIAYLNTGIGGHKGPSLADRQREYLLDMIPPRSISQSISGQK
UniProt O75362: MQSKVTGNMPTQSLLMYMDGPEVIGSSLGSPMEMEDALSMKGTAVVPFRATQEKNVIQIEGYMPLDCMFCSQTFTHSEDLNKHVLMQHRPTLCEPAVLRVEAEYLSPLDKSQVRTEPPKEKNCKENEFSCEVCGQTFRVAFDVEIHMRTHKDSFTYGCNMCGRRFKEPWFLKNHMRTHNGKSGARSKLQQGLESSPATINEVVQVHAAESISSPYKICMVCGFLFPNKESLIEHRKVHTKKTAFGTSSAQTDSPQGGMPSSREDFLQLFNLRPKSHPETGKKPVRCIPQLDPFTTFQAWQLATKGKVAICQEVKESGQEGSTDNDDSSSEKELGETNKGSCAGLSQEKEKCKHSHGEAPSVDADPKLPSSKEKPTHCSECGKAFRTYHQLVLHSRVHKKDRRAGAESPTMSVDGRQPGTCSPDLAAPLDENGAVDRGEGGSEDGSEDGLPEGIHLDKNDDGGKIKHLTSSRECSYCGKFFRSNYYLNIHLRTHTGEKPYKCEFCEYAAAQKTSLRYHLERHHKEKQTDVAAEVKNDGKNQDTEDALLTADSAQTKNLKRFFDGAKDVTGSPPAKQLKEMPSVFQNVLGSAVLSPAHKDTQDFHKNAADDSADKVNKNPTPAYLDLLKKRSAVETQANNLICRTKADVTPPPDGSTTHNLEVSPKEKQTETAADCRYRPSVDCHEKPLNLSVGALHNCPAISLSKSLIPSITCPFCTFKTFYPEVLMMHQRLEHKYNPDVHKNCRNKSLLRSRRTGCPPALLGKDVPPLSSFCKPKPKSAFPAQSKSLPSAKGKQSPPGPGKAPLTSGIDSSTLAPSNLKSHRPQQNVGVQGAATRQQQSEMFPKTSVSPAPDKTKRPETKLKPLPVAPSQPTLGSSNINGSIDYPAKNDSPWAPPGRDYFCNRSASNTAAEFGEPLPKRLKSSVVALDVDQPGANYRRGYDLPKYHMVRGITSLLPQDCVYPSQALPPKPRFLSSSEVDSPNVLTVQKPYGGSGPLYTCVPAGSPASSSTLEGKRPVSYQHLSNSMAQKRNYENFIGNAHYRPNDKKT

Legend:
[1] = biological target: CtBP2 mutant A58E (Flag-HA-tagged) (UniProt P56545); experiment: co-IP; HeLa cells transiently transfected with Flag-HA-tagged CtBP expression constructs; Flag antibody beads; Western blots of endogenous cellular proteins
Flag-HA-tagged CtBP2 [2] = biological target: Flag-HA-tagged CtBP2 (UniProt P56545); experiment: as above
Flag-HA-tagged CtBP2 [3] = biological target: Flag-HA-tagged CtBP2 (UniProt P56545); experiment: co-IP; lysates of HeLa lines stably expressing FH-CtBP2 or FH-CtBP1 and of normal HeLa, untreated or treated with 10 uM etoposide for 6 hr; Flag antibody beads, 4°C 1 hr; Western blots of endogenous proteins
[4] = biological target: K10R-CtBP2 mutant (Flag-HA-tagged) (UniProt P56545); experiment: co-IP; HeLa cells transiently transfected with Flag-HA-tagged CtBP expression constructs; Flag antibody beads; Western blots of endogenous cellular proteins
Flag-HA-tagged CtBP2 [5] = biological target: Flag-HA-tagged CtBP2 (UniProt P56545); experiment: co-IP; data not shown; same analysis as the Flag co-IP from HeLa/FH-CtBP2 lysates, untreated or etoposide-treated
[6] = biological target: endogenous CtBP2 (human (endogenous in A549)) (UniProt P56545); experiment: co-IP; lysates of normal A549 cells and of A549 cells with CtBP1 & 2 double knock-down; immunoprecipitated with a CtBP2 antibody; Western blot with E2F7 antibody
[7] = biological target: CtBP2 mutant A58E (Flag-HA-tagged) (UniProt P56545); experiment: co-IP; HeLa cells co-transfected with FH-tagged CtBP constructs and Myc-E2F7 constructs; lysate pre-incubated with 2 ug of a non-specific IgG (mouse monoclonal to luciferase); Flag antibody beads; Western blot
Flag-HA-tagged CtBP2 [8] = biological target: Flag-HA-tagged CtBP2 (UniProt P56545); experiment: as above

Row | Molecule | binding [1] | binding (Flag-HA-tagged CtBP2 [2]) | binding (Flag-HA-tagged CtBP2 [3]) | also measured
1 | Histone deacetylase 2 (from UniProt Q92769 1-488) | no binding | binds | binds | 
2 | Mi-2 protein (CHD4) (from UniProt Q14839 1-1912) |  |  | binds | 
3 | Transcriptional repressor p66-beta (from UniProt Q8WXI9 1-593) | no binding | binds | binds | binding [4]: no binding
4 | Zinc finger protein 217 (from UniProt O75362 1-1048) |  |  |  | binding (Flag-HA-tagged CtBP2 [5]): binds
5 | B1 | no binding | binds | binds | 
6 | B2 |  |  |  | binding [6]: binds
7 | B3 |  |  |  | binding [7]: no binding; binding (Flag-HA-tagged CtBP2 [8]): binds
